# Data from the supplement of paper PMC4604168 (melanoma cell lines).
# This is one part of the list. Many values rest on one well or one pass, so single values are uncertain.
# Legend:
# Assay in all cases: cell count relative to DMSO control; melanoma cells; higher = more viable cells
# Conditions in all cases: library dose: low library concentration; 72 h
# MZ2-MEL = system: MZ2-MEL
# MeWo = system: MeWo
# RPMI7951 = system: RPMI7951
# RVH-421 = system: RVH-421
# SkMel28 = system: SkMel28
# SkMel2 = system: SkMel2
# SkMel30 = system: SkMel30
# UACC62 = system: UACC62
# WM115 = system: WM115
# WM1716 = system: WM1716
# WM1745 = system: WM1745
# WM3526 = system: WM3526
# WM3619 = system: WM3619
# WM451Lu = system: WM451Lu
# SkMel5 = system: SkMel5
# UACC257 = system: UACC257
# 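Also: cell number obtained by counting DAPI-stained nuclei in high-throughput microscope images with image analysis software, screen run in 1,536-well plates.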
SMILES,cell count (MZ2-MEL) [%],cell count (MeWo) [%],cell count (RPMI7951) [%],cell count (RVH-421) [%],cell count (SkMel28) [%],cell count (SkMel2) [%],cell count (SkMel30) [%],cell count (UACC62) [%],cell count (WM115) [%],cell count (WM1716) [%],cell count (WM1745) [%],cell count (WM3526) [%],cell count (WM3619) [%],cell count (WM451Lu) [%],cell count (SkMel5) [%],cell count (UACC257) [%]
"Cc1ccc(Nc2nccc(N(C)c3ccc4c(C)n(C)nc4c3)n2)cc1S(N)(=O)=O [Pazopanib] + Cn1nnc2c(C(N)=O)ncn2c1=O [temozolomide] (first compound 0.4 µM, partner dose 2 µM)",73.7,111,74.7,104,91.1,106,83.1,73.3,96.9,89.7,90.5,95.9,84.5,88.8,,
"O=C(/C=C/c1cccnc1)NCCCCC1CCN(C(=O)c2ccccc2)CC1 + CC(C)C[C@H](NC(=O)[C@H](Cc1ccccc1)NC(=O)c1cnccn1)B(O)O [Bortezomib] (first compound 0.01 µM, partner dose 0.001 µM)",46.7,93.7,103,45.6,78.2,34.8,97.6,81.6,91,69.2,96.2,85.8,52.8,90.7,,
"O=C(/C=C/c1cccnc1)NCCCCC1CCN(C(=O)c2ccccc2)CC1 + Cc1cn(-c2cc(NC(=O)c3ccc(C)c(Nc4nccc(-c5cccnc5)n4)c3)cc(C(F)(F)F)c2)cn1 [nilotinib] (first compound 0.01 µM, partner dose 0.2 µM)",38.7,101,95.4,38.6,78.3,9.6,93.1,88.5,99.6,93.9,91.1,99.1,83.1,112,,
"CC1(C)CCC(c2ccc(Cl)cc2)=C(CN2CCN(c3ccc(C(=O)NS(=O)(=O)c4ccc(N[C@H](CCN5CCOCC5)CSc5ccccc5)c(S(=O)(=O)C(F)(F)F)c4)cc3)CC2)C1 + CCCCCCCCc1ccc(CCC(N)(CO)CO)cc1 [fingolimod] (first compound 0.4 µM, partner dose 2 µM)",97.2,68.2,48.4,87.8,92.1,83.3,80.8,85.4,80.8,71.8,5.93,71.7,80.1,92.6,,
"Cc1ccc(Nc2nccc(N(C)c3ccc4c(C)n(C)nc4c3)n2)cc1S(N)(=O)=O [Pazopanib] + O=C(O)c1ccc2c(c1)nc(Nc1cccc(Cl)c1)c1ccncc12 [CX4945] (first compound 0.4 µM, partner dose 0.4 µM)",66,112,91.6,110,118,92.6,73.1,86.4,101,85.9,114,83.6,114,89.8,,
"CC1(C)CCC(c2ccc(Cl)cc2)=C(CN2CCN(c3ccc(C(=O)NS(=O)(=O)c4ccc(N[C@H](CCN5CCOCC5)CSc5ccccc5)c(S(=O)(=O)C(F)(F)F)c4)cc3)CC2)C1 + Cc1cn(-c2cc(NC(=O)c3ccc(C)c(Nc4nccc(-c5cccnc5)n4)c3)cc(C(F)(F)F)c2)cn1 [nilotinib] (first compound 0.4 µM, partner dose 0.2 µM)",81.7,71.2,61.6,78.5,99.8,85.6,65,99.5,84.8,82.4,13.7,88.8,81.1,83.9,,
"CC1(C)CCC(c2ccc(Cl)cc2)=C(CN2CCN(c3ccc(C(=O)NS(=O)(=O)c4ccc(N[C@H](CCN5CCOCC5)CSc5ccccc5)c(S(=O)(=O)C(F)(F)F)c4)cc3)CC2)C1 + CCN(CC)CCNC(=O)c1c(C)[nH]c(/C=C2\C(=O)Nc3ccc(F)cc32)c1C [sunitinib] (first compound 0.4 µM, partner dose 0.4 µM)",104,54.2,78.6,90,86.6,102,61.8,87.5,76.1,97.6,8.95,117,130,85.5,,
"Cc1ccc(Nc2nccc(N(C)c3ccc4c(C)n(C)nc4c3)n2)cc1S(N)(=O)=O [Pazopanib] + OCc1c[nH]c2ccccc12 [Indole-3-carbinol] (first compound 0.4 µM, partner dose 0.8 µM)",76,112,90.9,99.7,106,98.8,85,105,104,85.3,88.5,96.4,90.2,94.9,,
"Cc1ccc(Nc2nccc(N(C)c3ccc4c(C)n(C)nc4c3)n2)cc1S(N)(=O)=O [Pazopanib] + CO[C@H]1C[C@@H]2CC[C@@H](C)[C@@](O)(O2)C(=O)C(=O)N2CCCC[C@H]2C(=O)O[C@H]([C@H](C)C[C@@H]2CC[C@@H](OCCO)[C@H](OC)C2)CC(=O)[C@H](C)/C=C(\C)[C@@H](O)[C@@H](OC)C(=O)[C@H](C)C[C@H](C)/C=C/C=C/C=C/1C [everolimus] (first compound 0.4 µM, partner dose 0.02 µM)",62.3,69.4,80.2,110,54.1,,62.6,78.8,81.2,64.8,95.5,70.9,77.9,85,,
"Cc1ccc(Nc2nccc(N(C)c3ccc4c(C)n(C)nc4c3)n2)cc1S(N)(=O)=O [Pazopanib] + C=CCn1c(=O)c2cnc(Nc3ccc(N4CCN(C)CC4)cc3)nc2n1-c1cccc(C(C)(C)O)n1 [MK1775] (first compound 0.4 µM, partner dose 0.02 µM)",,102,92.7,106,94.2,97.6,70.9,74.3,77.7,89.5,89.3,78.6,82.5,82.5,104,85.5
"Cc1ccc(Nc2nccc(N(C)c3ccc4c(C)n(C)nc4c3)n2)cc1S(N)(=O)=O [Pazopanib] + Nc1nc(F)nc2c1ncn2[C@@H]1O[C@H](CO)[C@@H](O)[C@@H]1O [fludarabine] (first compound 0.4 µM, partner dose 0.2 µM)",73.7,45.4,85.1,89.1,73,18.5,24.8,86.3,86.9,68.5,77.9,38.9,73.1,67.5,,
"Cc1ccc(Nc2nccc(N(C)c3ccc4c(C)n(C)nc4c3)n2)cc1S(N)(=O)=O [Pazopanib] + COC(=O)c1sccc1S(=O)(=O)Nc1ccc(Nc2ccccc2)cc1OC [GSK0660] (first compound 0.4 µM, partner dose 1 µM)",79.3,115,92.4,,77,93.7,76.8,83.1,104,92.7,84.7,88.5,81.4,92.9,98.2,85.1
"CC1(C)CCC(c2ccc(Cl)cc2)=C(CN2CCN(c3ccc(C(=O)NS(=O)(=O)c4ccc(N[C@H](CCN5CCOCC5)CSc5ccccc5)c(S(=O)(=O)C(F)(F)F)c4)cc3)CC2)C1 + Cc1ccc(Nc2nccc(N(C)c3ccc4c(C)n(C)nc4c3)n2)cc1S(N)(=O)=O [Pazopanib] (first compound 0.4 µM, partner dose 0.4 µM)",77.9,81.9,61.6,94.7,86.5,82.1,71.7,119,79.4,61.8,14.5,82.5,90.5,82.7,,
"CC1(C)CCC(c2ccc(Cl)cc2)=C(CN2CCN(c3ccc(C(=O)NS(=O)(=O)c4ccc(N[C@H](CCN5CCOCC5)CSc5ccccc5)c(S(=O)(=O)C(F)(F)F)c4)cc3)CC2)C1 + Nc1nc(F)nc2c1ncn2[C@@H]1O[C@H](CO)[C@@H](O)[C@@H]1O [fludarabine] (first compound 0.4 µM, partner dose 0.2 µM)",,15.1,51.4,73.7,44.4,2.34,14.4,37.8,36.3,71.1,14.4,21.5,57.8,31.6,,
"O=C(/C=C/c1cccnc1)NCCCCC1CCN(C(=O)c2ccccc2)CC1 + NCC(=O)Nc1ccc(-n2nc(C(F)(F)F)cc2-c2ccc3c(ccc4ccccc43)c2)cc1 [OSU03012] (first compound 0.01 µM, partner dose 1 µM)",,55.8,94.9,61.3,90.6,,62.6,87.8,82.6,99.9,103,49.6,90.7,55.4,97.2,109
"O=C(/C=C/c1cccnc1)NCCCCC1CCN(C(=O)c2ccccc2)CC1 + Cc1ccc(Nc2nccc(N(C)c3ccc4c(C)n(C)nc4c3)n2)cc1S(N)(=O)=O [Pazopanib] (first compound 0.01 µM, partner dose 0.4 µM)",28.7,117,103,53.2,92.3,17.9,101,92.1,101,94.2,81.7,111,75.6,116,,
"Cc1ccc(Nc2nccc(N(C)c3ccc4c(C)n(C)nc4c3)n2)cc1S(N)(=O)=O [Pazopanib] + CNC(=O)c1cc(Oc2ccc(NC(=O)Nc3ccc(Cl)c(C(F)(F)F)c3)cc2)ccn1 [sorafenib] (first compound 0.4 µM, partner dose 0.4 µM)",77.3,102,89.4,71.5,75.8,,87.3,82.1,82.3,79.8,89.2,82.6,80.2,108,,
